Among all 110,000 compounds or so, about 230 (0.21%) showed an effect of 50% or more. The list shows a part of the results.
What follows are molecules tested against DPAP1 (Plasmodium falciparum, UniProt Q8IIJ9) (assay: primary screen, percent inhibition; read by cleavage of a fluorogenic dipeptide substrate; higher = more effect of the substance).
Set-up: species or system P. falciparum D10 trophozoite lysates; single well
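Further: 30 min substrate incubation versus DMSO and 10 µM JCP410 controls.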

Sequence of DPAP1 (Q8IIJ9 whole entry, looked up): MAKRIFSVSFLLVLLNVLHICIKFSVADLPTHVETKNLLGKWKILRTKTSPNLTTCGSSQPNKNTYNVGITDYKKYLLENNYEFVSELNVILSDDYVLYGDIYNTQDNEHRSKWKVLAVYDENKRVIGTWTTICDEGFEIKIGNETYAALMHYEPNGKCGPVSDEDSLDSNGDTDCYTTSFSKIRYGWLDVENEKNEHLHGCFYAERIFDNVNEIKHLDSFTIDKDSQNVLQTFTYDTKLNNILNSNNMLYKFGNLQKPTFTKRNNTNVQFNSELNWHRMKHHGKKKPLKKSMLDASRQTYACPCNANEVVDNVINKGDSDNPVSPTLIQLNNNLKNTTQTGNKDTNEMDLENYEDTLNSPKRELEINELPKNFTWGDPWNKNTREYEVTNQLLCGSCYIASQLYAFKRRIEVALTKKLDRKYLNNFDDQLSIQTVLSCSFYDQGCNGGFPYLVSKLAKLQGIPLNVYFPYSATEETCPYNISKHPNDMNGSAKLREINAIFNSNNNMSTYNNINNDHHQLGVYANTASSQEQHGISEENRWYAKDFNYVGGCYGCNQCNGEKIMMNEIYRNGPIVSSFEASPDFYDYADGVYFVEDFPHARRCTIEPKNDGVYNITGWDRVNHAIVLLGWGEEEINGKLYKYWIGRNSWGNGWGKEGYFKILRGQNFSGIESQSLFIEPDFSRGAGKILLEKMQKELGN

Row | Compound | % Inhibition @ 10 uM [%]
1 | Cc1ccc(S(=O)(=O)N2CCCC2C(=O)Nn2cnnc2)cc1 (stereo not shown) | -4.64
2 | CC(C)(CO)NS(=O)(=O)c1ccccc1[N+](=O)[O-] | -0.0217
3 | O=C(CCCc1c[nH]c2ccccc12)Nc1cccc2cccnc12 | -3.26
4 | Cc1onc(-c2c(Cl)cccc2Cl)c1C(=O)NC(c1ccccc1)c1ccccc1 | -8.04
5 | Cc1c(C)n(C)c2ccc(C(=O)NC3CCCCCC3)cc12 | -0.0309
6 | c1nc(NCCN2CCOCC2)c2nc3n(c2n1)CCCCC3 | -5.46
7 | O=C(O)CCC(=O)Nc1ccc(Oc2ccc(NC(=O)CCC(=O)O)cc2)cc1 | -2.72
8 | CC1CN(c2oc(/C=C/c3cccs3)nc2C#N)CC(C)O1 (stereo not shown) | 3.27
9 | CCCOc1ccc(N2C(=O)C(Cl)=C(Nc3ccccc3)C2=O)cc1 | -1.07
10 | Cc1cc(C)n(C(=O)C2COc3ccccc3O2)n1 (stereo not shown) | 0.131
11 | COc1ccccc1C1CC(c2ccc(C)cc2)=NN1C(C)=O (stereo not shown) | -3.97
12 | COc1ccc(NC(=O)CN(Cc2ccccc2)S(C)(=O)=O)c(OC)c1 | -1.52
13 | CS(=O)(=O)N(CC(=O)N1CCC(Cc2ccccc2)CC1)Cc1ccccc1 | -15.2
14 | C=C(C)CN(CC)C/C=C/c1ccccc1[N+](=O)[O-] | -0.603
15 | O=C(O)CC/C(=C1\C=C(c2ccc(Cl)cc2)NC1=O)c1ccc(Cl)cc1 | 12.6
16 | CC(C)C[C@H](NC(=O)c1ccc2oc(-c3ccc[n+](C)c3)nc2c1)C(=O)NCC#N | -1.5
17 | CCOC(=O)c1cc2c(=O)n3ccccc3nc2n(C)/c1=N\C(=O)c1ccc(OC)cc1OC | 3.61
18 | COCCCN(Cc1cccs1)S(=O)(=O)c1ccc(-c2cc(C(F)(F)F)no2)s1 | 0.185
19 | CCOC(=O)c1c(NC(=O)c2cc(Cl)ccc2OC)sc(C(C)=O)c1C | 3.86
20 | COc1ccc(C2C=C(c3cccnc3)Nc3nc4ccccc4n32)cc1 (stereo not shown) | 3.32
21 | Cc1ccc(NC(=O)c2ccc(Cl)cc2)c(C)c1 | -5.34
22 | O=C(NC1CCS(=O)(=O)C1)OC1CCCCC1 (stereo not shown) | -6.44
23 | Cc1coc2cc3oc(=O)c(CC(=O)NCc4ccccc4Cl)c(C)c3cc12 | 4.13
24 | Cc1cccc(C(=O)Nc2cccc(NC(=O)c3cccc(C)c3)c2)c1 | -0.28
25 | CC1=C(C(=O)Nc2ccc(F)cc2)C(c2cccc(F)c2)NC(S)=N1 (stereo not shown) | -5.48

Row | Compound | % Inhibition @ 10 uM [%]
26 | O=[N+]([O-])c1ccc(CN2CCN(c3ccc(F)cc3)CC2)s1 | -3.77
27 | O=C(NC1CCc2ccccc2C1)c1cc2c(=O)oc3ccccc3c2s1 (stereo not shown) | 5.12
28 | O=C(O)c1ccc([N+](=O)[O-])cc1NC(=O)c1cccc2ccccc12 | 12.7
29 | COC(=O)c1cc(-c2ccc3ccccc3c2)[nH]n1 | -1.6
30 | COC(=O)c1c(-c2cc(C)ccc2C)csc1NC(=O)C1CCCCC1C(=O)O (stereo not shown) | 8.51
31 | COc1ccccc1/C=C1\C(=O)NC(=S)N(c2cccc3ccccc23)C1=O | -3.32
32 | CCC(C(=O)N1CCCC1)n1c(C(=O)OC)cc2sccc21 (stereo not shown) | -8.93
33 | Cc1cccc(CNc2nc3nc(C)c(Cl)c(C)n3n2)c1 | 1
34 | COc1ccc(C2C(C(=O)Nc3cccnc3)=C(C)Nc3nc(CCCO)nn32)cc1 (stereo not shown) | 0.889
35 | COc1cccc(-n2c(S)nnc2CN2CCN(C)CC2)c1 | 5.42
36 | CC(CNC(=O)Nc1ccc(Cl)cc1)NC(=O)Nc1ccc(Cl)cc1 (stereo not shown) | -1.38
37 | CC(C)Oc1ccc(CNC(=O)c2cc3cccc4c3n2CCS4)cc1 | 0.107
38 | O=C(CC(=O)NCc1cccnc1)NCc1cccnc1 | -2.74
39 | COc1ccc(C(=O)c2ccccc2)c(OCC(=O)NC23CC4CC(CC(C4)C2)C3)c1 | -5.23
40 | Cc1cc2ncn(Cc3ccc(Cl)cc3)c2cc1C | -2.28
41 | COc1ccc(Cl)cc1-n1c(C)cc(/C=C2/C(=N)N3C(=NC2=O)SN=C3S(C)(=O)=O)c1C | -5.27
42 | COc1cc(S(=O)(=O)Nc2ccc(C)cc2)ccc1N/C=C1\C(=O)N(C)C(=O)C(C#N)=C1C | -11.9
43 | COc1cc(NC(=O)c2ccc(Cl)c(Cl)c2)c(OC)cc1NC(C)=O | -1.78
44 | Cc1cccn2c(=O)c3cc(C(=O)N4CCN(C)CC4)c(=N)n(Cc4ccco4)c3nc12 | -1.47
45 | CCOC(=O)c1c(S(=O)(=O)NC2CCN(C(=O)OCC)CC2)c(C)n(C)c1C | 1.9
46 | Cc1ccc2oc(=O)c(-c3nc4cc(C(=O)O)ccc4[nH]3)cc2c1 | -2.78
47 | COc1ccccc1CNCc1ccccc1OC | 2.65
48 | O=S(=O)(Cc1ccccc1)Nn1cnnc1 | 0.736
49 | COc1cc(/C(C#N)=C/c2ccc(Cl)cc2)c([N+](=O)[O-])cc1OC | 3.03
